According to PMC4336329 (PLoS ONE, 2015):
The whole screen tested about 310,000 compounds, of which about 2,200 (0.71%) showed an effect of 50% or more. Effects have a minus sign here. Some of the results follow.

target: human ether-à-go-go-related gene (hERG) potassium channel (human, UniProt Q12809); assay: primary screen, population patch clamp on CHO cells stably expressing hERG
Sequence (Q12809 whole entry, looked up): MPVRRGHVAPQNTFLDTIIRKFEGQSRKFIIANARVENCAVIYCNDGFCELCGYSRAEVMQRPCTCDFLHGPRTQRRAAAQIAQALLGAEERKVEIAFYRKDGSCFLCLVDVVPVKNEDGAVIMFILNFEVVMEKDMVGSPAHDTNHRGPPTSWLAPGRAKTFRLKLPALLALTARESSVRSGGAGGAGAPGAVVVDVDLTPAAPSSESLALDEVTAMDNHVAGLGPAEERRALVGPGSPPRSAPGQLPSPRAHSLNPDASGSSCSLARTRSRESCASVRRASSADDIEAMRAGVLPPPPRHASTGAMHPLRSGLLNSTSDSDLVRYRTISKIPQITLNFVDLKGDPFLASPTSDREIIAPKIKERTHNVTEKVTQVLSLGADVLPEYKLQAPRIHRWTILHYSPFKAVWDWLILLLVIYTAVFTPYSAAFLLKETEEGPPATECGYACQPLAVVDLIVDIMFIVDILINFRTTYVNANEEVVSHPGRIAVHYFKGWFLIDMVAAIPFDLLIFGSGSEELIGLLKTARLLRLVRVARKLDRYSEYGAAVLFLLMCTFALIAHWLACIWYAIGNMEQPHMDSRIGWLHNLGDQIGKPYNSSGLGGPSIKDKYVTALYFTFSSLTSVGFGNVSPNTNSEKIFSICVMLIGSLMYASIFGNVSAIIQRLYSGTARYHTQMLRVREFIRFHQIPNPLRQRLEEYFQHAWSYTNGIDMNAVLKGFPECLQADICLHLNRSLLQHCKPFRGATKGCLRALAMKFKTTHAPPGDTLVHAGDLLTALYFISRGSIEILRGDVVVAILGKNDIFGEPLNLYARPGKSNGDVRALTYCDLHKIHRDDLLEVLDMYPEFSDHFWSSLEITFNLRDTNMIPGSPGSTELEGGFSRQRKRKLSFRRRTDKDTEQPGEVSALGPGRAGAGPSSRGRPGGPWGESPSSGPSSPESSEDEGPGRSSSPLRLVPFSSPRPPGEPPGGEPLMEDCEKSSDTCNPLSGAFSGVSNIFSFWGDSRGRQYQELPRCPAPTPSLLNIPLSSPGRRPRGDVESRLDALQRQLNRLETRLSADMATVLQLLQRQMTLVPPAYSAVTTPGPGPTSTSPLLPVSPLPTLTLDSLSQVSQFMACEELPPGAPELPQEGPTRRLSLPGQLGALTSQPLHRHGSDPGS

| SMILES | hERG current change (%, negative = inhibition) at 1uM [%] |
| --- | --- |
| CCOc1ccc(C(=O)NCC(C)C)cc1 | 6.68 |
| Cc1ccc(S(=O)(=O)N2CCN=C2SCc2c(F)cccc2Cl)cc1 | 8.24 |
| CCCCc1nc(N)c(C#N)c(-c2ccco2)c1CCC | 4.98 |
| O=c1c(/C=N/O)c(Nc2ccccc2)nc2ccccn12 | 5.13 |
| CN(CC(=O)Nc1cc(Cl)cc(Cl)c1)Cc1cccs1 | 9.22 |
| O=C(C1=C[C@H](c2ccccc2)C[C@H](OCc2ccc(CO)cc2)O1)N1CCN(Cc2ccccc2)CC1 | 3.89 |
| CCOC(=O)N1CCN(C(c2ccc(C)cc2)c2sc3nc(C)nn3c2O)CC1 (stereo not drawn) | 3.16 |
| CCOc1ccc(/C(CCC(=O)O)=N/NC(=S)NCCc2ccccc2)cc1 | 8.33 |
| Cc1ccc(C(=O)OCC(=O)c2c[nH]c3ccccc23)cc1 | 9.58 |
| O=S(=O)(Cc1cc(Sc2ccccc2)nc(-c2ccccc2)n1)c1ccccc1 | 0.315 |
| Cc1ccc(S(=O)(=O)N2CCC(C(=O)OC(C)C(=O)NC3CCCCC3C)CC2)cc1 (stereo not drawn) | 5.88 |
| C/C(=N\O)c1ccc(N2C(=O)C3CC=C(Cl)CC3C2=O)cc1 (stereo not drawn) | -1.14 |
| COc1ccc(-c2cc(C(=O)N3CCCC3)c3ccccc3n2)cc1 | 12.9 |
| CCN(CC)C(=O)CSc1nnc(-c2ccc(S(=O)(=O)N3CCCC3)cc2)o1 | -7.45 |
| Cc1ccc(/C=N/NC(=O)c2cc(C)oc2C)o1 | 9.22 |
| N#CC(C(=O)NCc1ccco1)c1nc2ccccc2nc1N1CCOCC1 (stereo not drawn) | 2.47 |
| COc1ccccc1NS(=O)(=O)c1ccc2ccccc2c1 | 8.29 |
| Cl.NCCCC[C@H](N)c1nnc([C@H](CC(=O)O)NC(=O)C2CCNCC2)o1 | 8.99 |
| CCCSc1nnc(Cn2c(=O)sc3ccccc32)n1-c1ccccc1 | -2.09 |
| COCCNS(=O)(=O)c1cc(OC)c(C)cc1C | 6.66 |
| CC1(C)CC(=O)C=C(c2cccc(O)c2)C1=O | 8.63 |
| COC(=O)C(C(=O)N1CCN(C)CC1)C1CCCCCC1 (stereo not drawn) | 7.72 |
| O=C(c1c[nH]c2ccccc12)C(O)C(c1ccccc1)N1CCOCC1 (stereo not drawn) | 12.7 |

| SMILES | hERG current change (%, negative = inhibition) at 1uM [%] |
| --- | --- |
| CC(NC(=O)C1CCN(C(=O)c2ccc(F)cc2)CC1)c1ccc(-n2ccnc2)cc1 (stereo not drawn) | -12.2 |
| NC(=O)COc1ccccc1 | 10.6 |
| CN(Cc1ccccc1)C(=C(Cl)Cl)/C(=C1/NCCN1Cc1ccc(Cl)nc1)[N+](=O)[O-] | 4.06 |
| O=C(CNc1cccc2ccccc12)N/N=C/c1ccc([N+](=O)[O-])cc1 | 11.6 |
| O=c1[nH]c2ccc(S(=O)(=O)N3CCCCC3)cc2s1 | -1.23 |
| COC(=O)c1ccc(OCCOCCOc2cccc3ccc(C)nc23)cc1 | 6.16 |
| COc1cccc(-c2nc(CS(=O)(=O)CC(=O)Nc3ccccc3Cl)c(C)o2)c1 | 9.58 |
| CC(Cc1ccccc1)NC(=O)/C=C/C(=O)O (stereo not drawn) | 2.24 |
| Cc1cccc(C(C)C)c1NC(=O)C1CCN(S(=O)(=O)c2ccccc2)CC1 | 11 |
| N#Cc1ccc(OCC(=O)N2CCN(S(=O)(=O)c3cccs3)CC2)cc1 | -54.7 |
| Cc1cc(C(=O)NCC(=O)OC(C(=O)Nc2cc(C(F)(F)F)ccc2Cl)c2ccccc2)ccc1[N+](=O)[O-] (stereo not drawn) | 5.04 |
| CC(C)c1cc(C(=O)OCC(=O)N2CCN(C(=O)c3ccco3)CC2)c(O)c(C(C)C)c1 | 7.26 |
| COC(=O)c1ccc(-c2ccc(F)cc2)nc1C | 11.6 |
| CC(C)(C)N(Cc1ccccc1)C(=O)CCc1ccccc1 | 18.1 |
| CC(C)[C@H]1CC[C@@H](C)C(C(=O)c2ccccc2)C1=O (stereo partly drawn) | 6.36 |
| Nc1nnc(SC2CCCC2)s1 | 12.1 |
| COCCN(C(=O)COC(=O)C1=COCCO1)c1c(N)n(Cc2ccccc2)c(=O)[nH]c1=O | 6.95 |
| O=S(=O)(NC1CCCCC1)OCC(Cl)(Cl)Cl | 5.01 |
| Cc1ccc(S(=O)(=O)Nc2cc(=O)[nH]c(SCC(=O)Nc3ccccc3C(F)(F)F)n2)cc1 | 14.6 |
| O=C(CS(=O)(=O)c1ccccc1)Nc1nccs1 | 20.7 |
| Cn1c(=O)c2c(n(C)c1=O)=NC1(CCCCC1)ON=2 | -1.09 |
| Cc1ccc(S(=O)(=O)NC2CCSC2=O)cc1C (stereo not drawn) | 8.47 |
| C=CCNC1=C(Cl)C(=O)N(c2ccccc2Cl)C1=O | 0.989 |

| SMILES | hERG current change (%, negative = inhibition) at 1uM [%] |
| --- | --- |
| O=S1(=O)CC(O)C(Nc2ccc(Cl)cc2)C1 (stereo not drawn) | 9.4 |
| O=C(CSc1ncnc2c1nnn2Cc1ccccc1)NC1CCCC1 | 17.2 |
| Cc1ccc(-c2ccc(SCC(=O)NC3CCCC3)nn2)cc1 | 18.8 |
| CC(=O)N1N=C(c2ccc(C)cc2)OC1c1ccc(Br)cc1 (stereo not drawn) | 24 |
| O=C(CC(=O)Nc1ccc(Br)cc1)Nc1ccc(Br)cc1 | 11.8 |
| COc1ccc(C2Nc3ccccc3C(=O)N2Cc2ccccc2)cc1OC (stereo not drawn) | 16.2 |
| CCc1ccc(N2C(=O)C3C4CCC(C4=C(C)C)C3C2=O)cc1 (stereo not drawn) | 2.63 |
| CCOc1cccc2cc(C(=O)NCCC3=CCCCC3)c(=O)oc12 | 7.13 |
| CCOC(=O)C1CCCN(C(=O)c2ccc([N+](=O)[O-])cc2)C1 (stereo not drawn) | -3.93 |
| COc1ccccc1NC(=O)CN1C(=O)CCS(=O)(=O)c2ccccc21 | 3.22 |
| COc1ccc(NC(=O)COc2ccc(C)cc2)c([N+](=O)[O-])c1 | 8.91 |
| CC(=O)c1ccc(S(=O)(=O)N2CCN(c3nc4c(C)c(C)ccc4cc3C#N)CC2)cc1 | 1.48 |
| COCCCNC(=O)CCCCCNS(=O)(=O)c1ccc(Br)cc1 | -5.74 |
| COc1ccccc1-n1c(SCC(=O)Nc2cc(C)on2)nc2c(c1=O)SCC2 | 4.66 |
| CCOC(=O)Cc1csc(NC(=O)COc2ccc(N(C)S(=O)(=O)c3ccc(C)cc3)cc2)n1 | -5.32 |
| CC(=O)N1CCCc2cc(S(=O)(=O)N(CC(C)C)CC(C)C)ccc21 | -9.33 |
| O=C(O)c1cnc(-c2ccccc2)nc1Sc1ccccc1Cl | 8.64 |
| Cc1ccc(-c2noc(-c3ccccc3C(=O)NCc3ccco3)n2)cc1 | -0.593 |
| CCOc1ccc(C(C)NC(=O)c2ccc3c(c2)NC(=O)C(C)S3)cc1OCC (stereo not drawn) | 11.2 |
| CC(C)C(C(=O)NC(C)(C)C)N(CCN1CCOCC1)C(=O)CNS(=O)(=O)c1ccccc1 (stereo not drawn) | 1.36 |
| CCn1c(=O)n(CC)c2cc(N3CCCC3)c(NC(=O)c3ccccc3Br)cc21 | 10.3 |
| Cc1cc(C)cc(NC(=O)/C=C/c2ccc([N+](=O)[O-])s2)c1 | 9.55 |
| O=C(c1ccccc1F)N1CCN(c2ccccc2)CC1 | 3.59 |

| SMILES | hERG current change (%, negative = inhibition) at 1uM [%] |
| --- | --- |
| COc1ccccc1NS(=O)(=O)c1ccc(C(=O)N2CC(C)OC(C)C2)cc1 (stereo not drawn) | 15.6 |
| CCOC(=O)/C(C(N)=NCCCO)=C(/O)c1ccccc1 | -0.697 |
| O=C(CCCO)c1ccc2c(c1)OCCO2 | 12.1 |
| O=C(N/N=C/c1ccco1)c1ccc2nc[nH]c2c1 | 16.7 |
| Cc1ccc(S(=O)(=O)N2CCC(C(=O)OC3CCOC3=O)CC2)cc1C (stereo not drawn) | 2.69 |
| Cc1ccc(-c2nc(CS(=O)CC(=O)NC(C)CCc3ccccc3)c(C)o2)cc1 (stereo not drawn) | -9.57 |
| Cc1cccc(-n2nc3c(c2NC(=O)c2ccco2)CSC3)c1C | 4.1 |
| CN(C(=O)c1ccccc1C(=O)OCC(=O)NCc1cccs1)C1CCCCC1 | 8.9 |
| CCc1ccc(Nc2cc(C)nc3ncnn23)cc1 | 1.97 |
| CCOc1ccc(C(C)=O)cc1Cc1c(O)[nH]c(=S)[nH]c1=O | 8.88 |
| Cc1cc(NC(=O)CCC(=O)N(Cc2ccco2)C(C(=O)NC2CCCCC2)c2cccs2)no1 (stereo not drawn) | -5.21 |
| CC(C)(C)c1cc(C(C)(C)C)cc(S(=O)(=O)CCc2ccccn2)c1 | 7.45 |
| Cc1ccc(C(=O)N2CCC(n3nccc3NC(=O)c3ccccc3C)CC2)cn1 | -5.07 |
| O=C(Nc1nccs1)c1cc2cc(Cl)ccc2oc1=O | 12.3 |
| COc1cc(/C=N/NC(=O)C(=O)/C=C2\NC(C)(C)Cc3ccccc32)ccc1O | 9.34 |
| Cc1ccc(-n2ccc(=O)c(C(=O)Nc3ccc(S(=O)(=O)Nc4nccc(C)n4)cc3)n2)cc1 | 0.335 |
| CCOc1ccc(NC(=O)Nc2cc(C)ccc2OC)cc1 | 5.71 |
| COC(=O)c1c(C)[nH]c(C(=O)COc2ccc3ccc(=O)oc3c2)c1C | 7.22 |
| CNC(=S)NN(c1ccccc1)c1ccccc1 | 3.65 |
| CCOC(=O)C1=C(C)OC2(O)c3ccccc3C(=O)C12O (stereo not drawn) | 12.1 |
| Cc1ccc(OCc2nnc(SC3CCc4ccccc4C3=O)n2C)cc1 (stereo not drawn) | -4.61 |
